# The campaign covered roughly 3,200 compounds. About 300 (9.4%) showed activity. Only a part is listed here, and it is no random draw.
# System: A673/TR/shEF
# Assay: cell viability (LOESS-normalised, relative to median of negative controls) (log2 ratio); higher = more viable cells (less compound effect), active = hit call of the paper (over 3 MAD below the median)
# Conditions: treatment time: 72 h
# Procedure, shortened: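 Viability of A673/TR/shEF Ewing sarcoma cells was determined by CellTiter-Glo luminescence. The cells, at 1,500 per well in 384-well plates, were grown with or without doxycycline from 24 h before compound addition to switch on EWS-FLI1 shRNA knockdown, then exposed for three days to library compounds at two or more concentrations or to DMSO controls. Signals were LOESS-corrected plate by plate, normalised to the negative-control median and log2-transformed.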
# [1] = 0.25 µM, library screen: screen1, EWS-FLI1 expression: high (no doxycycline)
# [2] = 0.25 µM, library screen: screen1, EWS-FLI1 expression: low (doxycycline-induced shRNA knockdown)
# [3] = 2.5 µM, library screen: screen1, EWS-FLI1 expression: high (no doxycycline)
# [4] = 2.5 µM, library screen: screen1, EWS-FLI1 expression: low (doxycycline-induced shRNA knockdown)
# [5] = 0.25 µM, library screen: screen2, EWS-FLI1 expression: high (no doxycycline)
# [6] = 0.25 µM, library screen: screen2, EWS-FLI1 expression: low (doxycycline-induced shRNA knockdown)
# [7] = 2.5 µM, library screen: screen2, EWS-FLI1 expression: high (no doxycycline)
# [8] = 2.5 µM, library screen: screen2, EWS-FLI1 expression: low (doxycycline-induced shRNA knockdown)
structure (smiles),measurement,setting,value
CN1C(=O)CC[C@H]1c1cccnc1,cell viability (log2),[1],inactive: 0.102
same,cell viability (log2),[2],inactive: 0.0122
same,cell viability (log2),[3],inactive: 0.0954
same,cell viability (log2),[4],inactive: -0.0438
O=C(/C=C/c1ccc(O)cc1O)c1ccccc1,cell viability (log2),[1],inactive: 0.0477
same,cell viability (log2),[2],inactive: 0.0515
same,cell viability (log2),[3],inactive: 0.136
same,cell viability (log2),[4],inactive: 0.0296
Cc1cc(O)c(C=O)c(O)c1C(=O)O,cell viability (log2),[1],inactive: 0.0431
same,cell viability (log2),[2],inactive: 0.0767
same,cell viability (log2),[3],inactive: 0.0238
same,cell viability (log2),[4],inactive: 0.158
CC[C@@H]1C(=O)OC[C@@H]1Cc1cncn1C,cell viability (log2),[1],inactive: 0.0873
same,cell viability (log2),[2],inactive: 0.0148
same,cell viability (log2),[5],inactive: 0.145
same,cell viability (log2),[6],inactive: 0.0737
same,cell viability (log2),[3],inactive: 0.0768
same,cell viability (log2),[4],inactive: 0.179
same,cell viability (log2),[7],inactive: 0.0821
same,cell viability (log2),[8],inactive: 0.0794
COc1cc(OC)c2c(c1Cl)O[C@@]1(C(=O)CC(=O)C[C@H]1C)C2=O,cell viability (log2),[1],inactive: 0.0893
same,cell viability (log2),[2],inactive: 0.0968
same,cell viability (log2),[3],inactive: 0.098
same,cell viability (log2),[4],inactive: 0.197
CCn1c(=O)[nH]c2cc(Cl)c(Cl)cc21,cell viability (log2),[5],inactive: 0.155
same,cell viability (log2),[6],inactive: 0.0458
same,cell viability (log2),[7],inactive: 0.183
same,cell viability (log2),[8],inactive: 0.0928
C[C@H](CCC(=O)O)[C@H]1CC[C@H]2[C@@H]3[C@@H](O)C[C@@H]4C[C@H](O)CC[C@]4(C)[C@H]3CC[C@]12C,cell viability (log2),"0.103 µM, library screen: screen3, EWS-FLI1 expression: high (no doxycycline)",inactive: 0.148
same,cell viability (log2),"0.103 µM, library screen: screen3, EWS-FLI1 expression: low (doxycycline-induced shRNA knockdown)",inactive: 0.0907
same,cell viability (log2),[1],inactive: 0.129
same,cell viability (log2),[2],inactive: 0.102
same,cell viability (log2),"0.308 µM, library screen: screen3, EWS-FLI1 expression: high (no doxycycline)",inactive: 0.121
same,cell viability (log2),"0.308 µM, library screen: screen3, EWS-FLI1 expression: low (doxycycline-induced shRNA knockdown)",inactive: 0.0979
same,cell viability (log2),"0.926 µM, library screen: screen3, EWS-FLI1 expression: high (no doxycycline)",inactive: 0.0576
same,cell viability (log2),"0.926 µM, library screen: screen3, EWS-FLI1 expression: low (doxycycline-induced shRNA knockdown)",inactive: 0.0826
same,cell viability (log2),[3],inactive: 0.151
same,cell viability (log2),[4],inactive: 0.105
same,cell viability (log2),"2.8 µM, library screen: screen3, EWS-FLI1 expression: high (no doxycycline)",inactive: 0.0823
same,cell viability (log2),"2.8 µM, library screen: screen3, EWS-FLI1 expression: low (doxycycline-induced shRNA knockdown)",inactive: 0.0649
same,cell viability (log2),"8.3 µM, library screen: screen3, EWS-FLI1 expression: high (no doxycycline)",inactive: 0.0654
same,cell viability (log2),"8.3 µM, library screen: screen3, EWS-FLI1 expression: low (doxycycline-induced shRNA knockdown)",inactive: 0.0967
same,cell viability (log2),"25 µM, library screen: screen3, EWS-FLI1 expression: high (no doxycycline)",inactive: 0.0615
same,cell viability (log2),"25 µM, library screen: screen3, EWS-FLI1 expression: low (doxycycline-induced shRNA knockdown)",inactive: 0.137
COC(=O)c1cc(OC)c(=O)c2c(OC)c(OC)ccc2c1,cell viability (log2),[1],active: -0.0869
CC(=O)OCCC(C)CCC=C(C)C (stereo unspecified),cell viability (log2),[1],inactive: 0.082
same,cell viability (log2),[2],inactive: -0.0096
same,cell viability (log2),[3],inactive: 0.0689
same,cell viability (log2),[4],inactive: 0.105
CC(=O)O[C@@H]1CC[C@@]2(C)[C@H](CC[C@@H]3[C@@H]2C[C@H](OC(C)=O)[C@]2(C)[C@@H](C(C)=O)CC[C@@H]32)C1,cell viability (log2),[1],inactive: 0.135
same,cell viability (log2),[2],inactive: 0.117
same,cell viability (log2),[3],inactive: 0.0696
same,cell viability (log2),[4],inactive: 0.102
N[C@@H](CS(=O)O)C(=O)O,cell viability (log2),[5],inactive: 0.258
same,cell viability (log2),[6],inactive: 0.0997
same,cell viability (log2),[7],inactive: 0.124
same,cell viability (log2),[8],inactive: 0.0688
N#Cc1cc2nc(O)c(O)nc2cc1[N+](=O)[O-],cell viability (log2),[5],inactive: 0.155
same,cell viability (log2),[6],inactive: 0.114
same,cell viability (log2),[7],inactive: 0.184
same,cell viability (log2),[8],inactive: 0.11

# Source: the supplement of paper PMC6089552
